Consider 28 compounds from PubChem BioAssay AID1645882 (National Center for Advancing Translational Sciences (NCATS), 2021).

The structures appear in SMILES notation. “And” between values parts separate entries of the source, which are not always exact repeats. Equal values may be shown once. The campaign covered roughly 16,000 compounds. About 120 (0.75%) were called active. Inconclusive results (about 4%) are left out. Calls follow the shape of the dose curve; as a rule, active = well fitted inhibition curve with a large enough effect; inconclusive = small, poorly fitted or top-dose-only effect; inactive = no such curve, though single readings can be large or run the other way. This is one part of the list. Some compounds were tested as several samples or in several runs, with calls that do not always agree.
Potency is read from the fitted curve at half-maximal effect.

Chain of UniProt O95398 (O95398 whole entry, looked up): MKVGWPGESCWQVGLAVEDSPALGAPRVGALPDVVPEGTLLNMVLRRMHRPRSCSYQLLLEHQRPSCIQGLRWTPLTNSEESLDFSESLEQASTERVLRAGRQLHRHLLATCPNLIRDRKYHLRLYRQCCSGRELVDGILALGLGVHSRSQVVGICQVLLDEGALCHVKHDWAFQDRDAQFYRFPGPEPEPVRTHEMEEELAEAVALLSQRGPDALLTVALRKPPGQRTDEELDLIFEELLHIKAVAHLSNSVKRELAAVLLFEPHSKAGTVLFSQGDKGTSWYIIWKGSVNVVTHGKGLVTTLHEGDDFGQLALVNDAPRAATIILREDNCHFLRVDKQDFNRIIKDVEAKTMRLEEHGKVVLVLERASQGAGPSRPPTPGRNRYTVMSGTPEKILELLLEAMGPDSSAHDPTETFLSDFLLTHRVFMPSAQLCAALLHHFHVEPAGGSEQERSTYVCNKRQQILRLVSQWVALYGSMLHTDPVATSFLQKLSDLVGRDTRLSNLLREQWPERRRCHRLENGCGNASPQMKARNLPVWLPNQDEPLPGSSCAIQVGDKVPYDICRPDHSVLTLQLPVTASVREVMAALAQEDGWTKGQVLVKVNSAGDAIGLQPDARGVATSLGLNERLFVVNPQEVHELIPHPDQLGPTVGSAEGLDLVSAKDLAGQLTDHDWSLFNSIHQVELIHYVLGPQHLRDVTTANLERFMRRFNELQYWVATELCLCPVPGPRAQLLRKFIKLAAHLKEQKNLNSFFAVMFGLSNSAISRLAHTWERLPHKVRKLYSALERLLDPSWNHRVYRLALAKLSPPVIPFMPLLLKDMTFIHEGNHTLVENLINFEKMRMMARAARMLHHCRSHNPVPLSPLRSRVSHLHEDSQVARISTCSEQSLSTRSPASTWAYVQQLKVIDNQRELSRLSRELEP

In the assay the target is Rap guanine nucleotide exchange factor 3 (Homo sapiens) (UniProt O95398). The assay is described as follows: Validation qHTS for antagonist of cAMP-regulated guanine nucleotide exchange factor 3 (EPAC1). Also: nearly all actives have a fitted effect of over 75% in size.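 As to activity change, negative = inhibition: plate controls were DMSO for no effect and ATA control for full effect.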 Conditions: EPAC1 Rap1B-BODIPY-GDP exchange, fluorescence; series mostly up to 150 µM; activity change, negative = inhibition: at the top concentration. The procedure, abridged:
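EPAC1 (100 nM) mixed with 250 nM RAP1B-BODIPY-GDP and 50 uM GDP; compounds in concentration series, 5 min at room temperature. Fluorescence (ex 480/em 540 nm) read every 5 min for 30 min; normalized to ATA control and DMSO.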
For `COC(=O)[C@@H]1[C@H]2C[C@H]3c4[nH]c5ccccc5c4CCN3C[C@H]2CC[C@@H]1O`, the “activity change, negative = inhibition” value is inactive: 19.6%. In the case of `COC(=O)CC1C(C)(C)C(OC(C)=O)[C@@]2(O)C=C3C4CC(=O)OC(c5ccoc5)[C@]4(C)CCC3[C@@]1(C)C2=O` (stereo partly drawn), the “activity change, negative = inhibition” value was inactive: 16.7%. Regarding `CN=C(N)NC(=O)Nc1c(C)cccc1C`, the “activity change, negative = inhibition” value was inactive: 8.5%.

On to `CC(=O)c1ccc(-c2cc(F)cc3c2OC(CNC(=O)Cc2cn4ccsc4n2)C3)s1` (stereo not drawn), for which the “activity change, negative = inhibition” value was inactive: 16.1%. Turning to `COc1ccc(Oc2ncc3nc(-c4ccc(Cl)cc4)c(=O)n(CCC#N)c3n2)cc1`, the “activity change, negative = inhibition” value is inactive: 9.79%. In the case of `CC1=CC(=O)[C@@H]2C[C@H]1C2(C)C`, the “activity change, negative = inhibition” value was inactive: 17.9%. Still for that read-out and setting: for `O=C(c1cccc(F)c1)N1CCC2(CCCN(c3cccc(-c4ccccc4)c3)C2)CC1` the value was inactive: -4.45%; for `CC(=O)Nc1cccc(O)c1`, inactive: 225%; for `Cc1cnc(C(=O)O)c[n+]1[O-]`, “inactive”. As for `C[C@@]12CCC[C@H]1C1CC[C@H]3C[C@H](O)CC[C@]3(C)C1CC2` (stereo partly drawn), the “activity change, negative = inhibition” value was inactive: 34.3%. In the case of `O=C(Nc1ccccc1)[C@@H]1CC=C[C@@H]2CCN(Cc3ccccc3)C(=O)[C@@H]21`, the “activity change, negative = inhibition” value is inactive: 13.4%. With `COc1ccc2c(c1)C[C@]1(C)c3ccccc3C(=O)N(Cc3ccccc3)[C@H]21`, the “activity change, negative = inhibition” value was inactive: -30%. As for `O=c1c(O)c(-c2ccc(O)c(O)c2)oc2cc(O)cc(O)c12`, the Potency entry is “inactive and active: 79.4 µM”.

In the case of `O=C1CCC[C@@H]2Cc3nc4ccc(O)cc4cc3[C@@H]3CCN1[C@H]23`, the “activity change, negative = inhibition” value was inactive: 18.7%. As to `COc1cc(OC)c2c(=O)c(-c3ccccc3)c(C)oc2c1OC`, the “activity change, negative = inhibition” value is inactive: 5.94%. For `CC(CCC(=O)O)C1CCC2C3CC[C@H]4CC(O)CC[C@@]4(C)C3C=C[C@]12C` (stereo partly drawn), the “activity change, negative = inhibition” value is inactive: -25.3%.

`O=C(c1cnccn1)N1CCC[C@@]2(CCN(Cc3ccncc3)C2)C1`: the “activity change, negative = inhibition” value is inactive: 9.04%. In the case of `COc1ccc(CN2CCN(C(c3ccc(F)cc3)c3ccc(F)cc3)CC2)c(OC)c1OC`, the “activity change, negative = inhibition” value was inactive: -22.1%.

In the case of `CC(C)Cc1ccc(C(C)C(=O)O)cc1` (stereo not drawn), the activity change, negative = inhibition entry was “inactive”.

On to `CC(C)C[C@@H](CN=[N+]=[N-])N1CCN(CC(C)C)CCC1=O`, for which the “activity change, negative = inhibition” value is inactive: 5.97%. With `COc1cc2c(cc1OC)C(=O)N(C)CC2`, the “activity change, negative = inhibition” value was inactive: 14.4%. For `[Cl][In]([Cl])[Cl]`, the activity change, negative = inhibition entry is “inactive”.

Consider `C#CCN(C1CCCC1)S(=O)(=O)C=C`, for which the “activity change, negative = inhibition” value is inactive: -17.4%. Take `COC(=O)c1cc(-c2c(-c3cc(OC)c(OC)c(OC)c3)noc2C)cc([N+](=O)[O-])c1`: the “activity change, negative = inhibition” value was inactive: -3.29%. In the case of `COC(=O)N1CCC2(CCCN(C(c3ccccc3)c3ccccc3)C2)CC1`, the “activity change, negative = inhibition” value is inactive: 10.7%. With `COc1ccc(CCNC(=O)c2cnn(-c3nccc(-c4cccs4)n3)c2C)cc1OC`, the “activity change, negative = inhibition” value is inactive: 19.8%. Regarding `CC(=O)NCCNc1ncnc2ccc(-c3ccc4c(c3)OCO4)cc12`, the “activity change, negative = inhibition” value was inactive: 3.14%.

As to `COc1cc(=O)n2c(c1C(=O)N(C)C(C)c1ccco1)CCN(C(=O)c1ccc(C(C)=O)cc1)CC2` (stereo not drawn), the “activity change, negative = inhibition” value is inactive: -4.72%.
